Measured values published in the supplement of paper PMC4967469.
By IC50 is meant the dose at which the fit gives 50% viability; where the fit passes the top or lowest dose, that dose stands as a limit. AUC sums up the same curve from the lowest dose to the 256-fold higher top dose: 1 means no effect, lower means more sensitive. For some assays here: An inferred top dose is not printed in the source and was worked back from the curve model. For some assays here: Drugs with an entry number were screened twice under separate entries, and the two screens often disagree.

How the values were obtained:
Assay in all cases: Viability of human cancer cell lines after 72 h of drug (GDSC screen)
GSK269962A = compound: CCn1c(-c2nonc2N)nc2cnc(Oc3cccc(NC(=O)c4ccc(OCCN5CCOCC5)cc4)c3)cc21 [GSK269962A]; settings: top dose inferred
Description: (§1)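 Human cancer cell lines in 384-well plates, medium with 10% serum, drug for 72 h over a 256-fold dose range (nine 2-fold or five 4-fold steps up to the top dose). Adherent lines were fixed and stained with the nucleic acid dye Syto60, suspension lines read with resazurin; signal relative to control wells, capped at 0 and 100%. One two-parameter sigmoid per drug and line, fitted in a mixed model over all curves with the slope shared within a line.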

MPS-1-IN-1 = compound: COc1cc(N2CCC(O)CC2)ccc1Nc1cc(Nc2ccccc2S(=O)(=O)C(C)C)c2cc[nH]c2n1 [MPS-1-IN-1]; settings: top dose 20 µM; top dose inferred
Description: as §1

ABT-869 = compound: Cc1ccc(F)c(NC(=O)Nc2ccc(-c3cccc4[nH]nc(N)c34)cc2)c1 [ABT-869]; settings: top dose 1.024 µM; top dose inferred
Description: as §1

CP466722 = compound: COc1cc2ncnc(-n3nc(-c4ccccn4)nc3N)c2cc1OC [CP466722]; settings: top dose 16 µM; top dose inferred
Description: as §1

(5Z)-7-Oxozeaenol = compound: COc1cc(O)c2c(c1)/C=C/C[C@H](O)[C@H](O)C(=O)/C=C\C[C@H](C)OC2=O [(5Z)-7-Oxozeaenol]; settings: top dose 10 µM; top dose inferred
Description: as §1

CHIR-99021 = compound: Cc1cnc(-c2cnc(NCCNc3ccc(C#N)cn3)nc2-c2ccc(Cl)cc2Cl)[nH]1 [CHIR-99021]
Description: as §1

KU-55933 = compound: O=c1cc(-c2cccc3c2Sc2ccccc2S3)oc(N2CCOCC2)c1 [KU-55933]; settings: top dose 10 µM
Description: as §1

ABT-888 = compound: C[C@]1(c2nc3c(C(N)=O)cccc3[nH]2)CCCN1 [ABT-888]; settings: top dose 5 µM; top dose inferred
Description: as §1

Zibotentan = compound: COc1nc(C)cnc1NS(=O)(=O)c1cccnc1-c1ccc(-c2nnco2)cc1 [Zibotentan]; settings: top dose 20 µM; top dose inferred
Description: as §1

Thapsigargin = compound: C/C=C(/C)C(=O)O[C@H]1C(C)=C2[C@H]([C@@H]1OC(=O)CCCCCCC)[C@@](C)(OC(C)=O)C[C@H](OC(=O)CCC)[C@@]1(O)[C@H]2OC(=O)[C@@]1(C)O [Thapsigargin]; settings: top dose 0.512 µM; top dose inferred
Description: as §1

QL-X-138 = compound: C=CC(=O)Nc1cc(-n2c(=O)ccc3cnc4ccc(-c5cn[nH]c5)cc4c32)ccc1C [QL-X-138]; settings: top dose 10.24 µM; top dose inferred
Description: as §1

CMK = compound: Cc1ccc(-c2c(C(=O)CCl)n(CCCO)c3ncnc(N)c23)cc1 [CMK]; settings: top dose 4 µM; top dose inferred
Description: as §1

[1] = top dose 2.5 µM, screen: GDSC drug entry 127
[2] = top dose 5 µM, screen: GDSC drug entry 1192
[3] = top dose 2.56 µM, screen: GDSC drug entry 154
[4] = top dose 10 µM, screen: GDSC drug entry 1241, top dose inferred

| Cell Line | AUC (GSK269962A; [1]) | IC50 (GSK269962A; [1]) [µM] | AUC (GSK269962A; [2]) | IC50 (GSK269962A; [2]) [µM] | AUC (MPS-1-IN-1) | IC50 (MPS-1-IN-1) [µM] | AUC (ABT-869) | IC50 (ABT-869) [µM] | AUC (CP466722) | IC50 (CP466722) [µM] | AUC ((5Z)-7-Oxozeaenol) | IC50 ((5Z)-7-Oxozeaenol) [µM] | AUC (CHIR-99021; [3]) | IC50 (CHIR-99021; [3]) [µM] | AUC (CHIR-99021; [4]) | IC50 (CHIR-99021; [4]) [µM] | AUC (KU-55933) | IC50 (KU-55933) [µM] | AUC (ABT-888) | IC50 (ABT-888) [µM] | AUC (Zibotentan) | IC50 (Zibotentan) [µM] | AUC (Thapsigargin) | IC50 (Thapsigargin) [µM] | AUC (QL-X-138) | IC50 (QL-X-138) [µM] | AUC (CMK) | IC50 (CMK) [µM] |
| --- | --- | --- | --- | --- | --- | --- | --- | --- | --- | --- | --- | --- | --- | --- | --- | --- | --- | --- | --- | --- | --- | --- | --- | --- | --- | --- | --- | --- |
| NAMALWA (Burkitt lymphoma, suspension) | 0.984 | > 2.5 | 0.964 | > 5 | 0.857 | 12.4 | 0.99 | > 1.02 | 0.674 | 2.8 | 0.7 | 2.05 | 0.988 | > 2.56 | 0.933 | > 10 | 0.96 | > 10 | 0.984 | > 5 | 0.991 | > 20 | 0.397 | 0.0176 | 0.465 | 0.523 | 0.809 | 1.7 |
| NB14 (neuroblastoma, adherent) | 0.974 | > 2.5 | 0.736 | 1.4 | 0.44 | 0.867 | 0.989 | > 1.02 | 0.846 | 10.7 | 0.52 | 0.708 | 0.955 | > 2.56 | 0.894 | > 10 | 0.944 | > 10 | 0.988 | > 5 | 0.988 | > 20 | 0.248 | 0.00634 | 0.892 | > 10.2 | 0.939 | > 4 |
| NCI-H23 (lung adenocarcinoma, adherent) | 0.979 | > 2.5 | 0.976 | > 5 | 0.922 | > 20 | 0.987 | > 1.02 | 0.792 | 7.17 | 0.556 | 0.889 | 0.982 | > 2.56 | 0.967 | > 10 | 0.978 | > 10 | 0.979 | > 5 | 0.988 | > 20 | 0.807 | 0.26 | 0.913 | > 10.2 | 0.838 | 2.66 |
| NCI-H82 (small cell lung carcinoma, suspension) | 0.948 | > 2.5 | 0.983 | > 5 | 0.907 | > 20 | 0.989 | > 1.02 | 0.826 | 9.02 | 0.886 | > 10 | 0.96 | > 2.56 | 0.985 | > 10 | 0.897 | > 10 | 0.99 | > 5 | 0.989 | > 20 | 0.436 | 0.0216 | 0.874 | 9.07 | 0.924 | > 4 |
| NCI-H526 (small cell lung carcinoma, suspension) | 0.947 | > 2.5 | 0.976 | > 5 | 0.893 | > 20 | 0.989 | > 1.02 | 0.987 | > 16 | 0.978 | > 10 | 0.948 | > 2.56 | 0.988 | > 10 | 0.97 | > 10 | 0.989 | > 5 | 0.989 | > 20 | 0.53 | 0.0384 | 0.792 | 4.41 | 0.98 | > 4 |
| NCI-H1155 (large cell lung carcinoma, suspension) | 0.96 | > 2.5 | 0.774 | 1.62 | 0.954 | > 20 | 0.991 | > 1.02 | 0.902 | 14.2 | 0.84 | 5.2 | 0.993 | > 2.56 | 0.989 | > 10 | 0.95 | > 10 | 0.992 | > 5 | 0.992 | > 20 | 0.873 | 0.346 | 0.886 | 7.84 | 0.984 | > 4 |
| NEC8 (testis, adherent) | 0.986 | > 2.5 | 0.983 | > 5 | 0.933 | > 20 | 0.99 | > 1.02 | 0.871 | 11.3 | 0.772 | 3.3 | 0.984 | > 2.56 | 0.925 | > 10 | 0.944 | > 10 | 0.973 | > 5 | 0.991 | > 20 | 0.317 | 0.0108 | 0.876 | 7.56 | 0.95 | > 4 |
| NOMO-1 (acute myeloid leukaemia, suspension) | 0.913 | > 2.5 | 0.907 | > 5 | 0.751 | 7.41 | 0.857 | 1.02 | 0.703 | 4.08 | 0.537 | 0.801 | 0.978 | > 2.56 | 0.957 | > 10 | 0.852 | 9.39 | 0.907 | > 5 | 0.98 | > 20 | 0.966 | > 0.512 | 0.613 | 1.37 | 0.977 | > 4 |
| OCI-AML2 (acute myeloid leukaemia, suspension) | 0.953 | > 2.5 | 0.942 | > 5 | 0.78 | 6.18 | 0.992 | > 1.02 | 0.682 | 2.79 | 0.04 | < 0.0391 | 0.989 | > 2.56 | 0.994 | > 10 | 0.984 | > 10 | 0.994 | > 5 | 0.994 | > 20 | 0.308 | 0.0109 | 0.705 | 2.04 | 0.92 | 3.34 |
| OCI-AML3 (acute myeloid leukaemia, suspension) | 0.978 | > 2.5 | 0.788 | 1.86 | 0.869 | 14.1 | 0.991 | > 1.02 | 0.843 | 9.08 | 0.322 | 0.216 | 0.991 | > 2.56 | 0.99 | > 10 | 0.987 | > 10 | 0.98 | > 5 | 0.989 | > 20 | 0.737 | 0.134 | 0.497 | 0.631 | 0.991 | > 4 |
| OCI-M1 (acute myeloid leukaemia, suspension) | 0.782 | 0.797 | 0.969 | > 5 | 0.954 | > 20 | 0.995 | > 1.02 | 0.801 | 5.76 | 0.836 | 4.55 | 0.993 | > 2.56 | 0.889 | 6.76 | 0.993 | > 10 | 0.994 | > 5 | 0.993 | > 20 | 0.482 | 0.0289 | 0.388 | 0.34 | 0.931 | 4 |
| OVCAR-4 (ovary, adherent) | 0.898 | > 2.5 | 0.896 | > 5 | 0.928 | > 20 | 0.96 | > 1.02 | 0.779 | 10.2 | 0.675 | 2.45 | 0.947 | > 2.56 | 0.931 | > 10 | 0.925 | > 10 | 0.962 | > 5 | 0.975 | > 20 | 0.201 | 0.00256 | 0.798 | 7.98 | 0.812 | 3.63 |
| PSN1 (pancreas, adherent) | 0.936 | > 2.5 | 0.933 | > 5 | 0.767 | 6.33 | 0.986 | > 1.02 | 0.702 | 3.32 | 0.208 | 0.104 | 0.99 | > 2.56 | 0.96 | > 10 | 0.949 | > 10 | 0.99 | > 5 | 0.99 | > 20 | 0.092 | < 0.002 | 0.791 | 3.81 | 0.813 | 1.75 |
| RH-1 (rhabdomyosarcoma, adherent) | 0.98 | > 2.5 | 0.955 | > 5 | 0.65 | 3.01 | 0.991 | > 1.02 | 0.698 | 3.22 | 0.745 | 2.71 | 0.992 | > 2.56 | 0.975 | > 10 | 0.972 | > 10 | 0.992 | > 5 | 0.991 | > 20 | 0.302 | 0.00991 | 0.683 | 1.88 | 0.992 | > 4 |
| RPMI-8402 (T-cell lymphoblastic leukaemia, suspension) | 0.881 | 1.89 | 0.826 | 2.41 | 0.803 | 8.08 | 0.986 | > 1.02 | 0.455 | 0.771 | 0.533 | 0.755 | 0.991 | > 2.56 | 0.978 | > 10 | 0.946 | > 10 | 0.991 | > 5 | 0.988 | > 20 | 0.22 | 0.00581 | 0.499 | 0.635 | 0.818 | 1.81 |
| SF126 (glioma, adherent) | 0.89 | > 2.5 | 0.907 | > 5 | 0.964 | > 20 | 0.986 | > 1.02 | 0.82 | 9.86 | 0.62 | 1.36 | 0.983 | > 2.56 | 0.901 | > 10 | 0.971 | > 10 | 0.984 | > 5 | 0.985 | > 20 | 0.491 | 0.0303 | 0.756 | 3.68 | 0.928 | > 4 |
| SF268 (glioma, adherent) | 0.852 | 2.17 | 0.832 | 3.55 | 0.86 | 18.8 | 0.978 | > 1.02 | 0.895 | > 16 | 0.717 | 2.72 | 0.983 | > 2.56 | 0.917 | > 10 | 0.972 | > 10 | 0.983 | > 5 | 0.97 | > 20 | 0.157 | 0.00252 | 0.683 | 2.18 | 0.964 | > 4 |
